# Measurements reported in the supplement of paper PMC10126150.
# Sequences with one replicate were seen in a single cluster, so their values are uncertain.
# Test system: ATP
# Assay: switch fluorescence ratio, 500 uM ATP over buffer (Cy3 cluster intensity, sum of 5 cycles each) (fold (ratio)); higher = stronger signal-on switching upon ATP binding; sequences stand for … in TCGTCGGCAGCGTCAGATGTGTATAAGAGACAGTTTTTTTTTTTTTTTTTTTTTTTTT…TC
# Settings: aptamer strand: ATP DNA aptamer (quencher-CACCTGGGGGAGTATTGCGGAGGAAGG + anchor), 100 nM annealed; ATP concentration: 500 uM; one replicate
# Procedure, shortened: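 Clusters carrying Cy3-labelled switching strands on a modified Illumina MiSeq flow-cell were annealed to 100 nM quencher-labelled ATP aptamer and imaged in selection buffer. They were imaged again after 15 min with 500 uM ATP at 22 °C, over five buffer/ATP cycles with NaOH stripping and re-annealing in between. For each cluster, the fluorescence ratio is the summed Cy3 intensity of the target cycles divided by that of the buffer cycles, averaged per switch-domain sequence. Clusters outside 100-1000 RFU were left out.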
# 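Further: ATP exposure 15 min at 22 °C before imaging.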
row,Sequence,switch fluorescence ratio
1,CTGTTAAGT,0.925
2,CCAGAGCTGT,2.91
3,ATTGTGGACG,0.951
4,AGTTAATGCA,0.962
5,CCACTTCTAG,0.988
6,GTCTTAAAGA,0.993
7,TGAAAACGAG,1.03
8,CAAAGGGGTA,1.02
9,GGCCATCGTT,0.962
10,TTGGGACCGA,1.01
11,TCCGAGGACA,1.06
12,CACAGATGGT,1
13,CTAGTGTCAG,0.995
14,ATCCACGCTT,1.06
15,TATGAGCGAA,0.994
16,ACTTGAGTTG,0.995
17,CAATGAATCT,1.01
18,TCTTCGCATA,2.49
19,AGGTGAAGCA,1.01
20,CCAGCAGGGC,1.57
21,TTCGTCACCG,0.977
22,TTCGGGAAGA,1.1
23,AACAAATTGA,1.03
24,AAGGCGTCTT,1.01
25,ATGATTAGAA,1.02
26,TGGGCTGTG,0.972

row,Sequence,switch fluorescence ratio
1,TTTTGGCTG,0.965
2,TGATTACGGT,1.02
3,GCGCAACCCA,0.979
4,TGAGTTCCGG,0.987
5,AGGAGATAGG,1.01
6,TATAAAAGA,1.02
7,CGTTAGGACT,0.972
8,GACAGTAACC,1.16
9,GTGACCAAGT,1.01
10,AGTTGGTGCG,1.04
11,CACTGCCTTT,1.05
12,ATTGTGGTAT,0.961
13,TTATTCGGCC,0.988
14,CTGTGCCTA,1.01
15,ATCTGTAGC,1.06
16,CTCGTTAAC,1.08
17,TCTTGCTTCT,1.01
18,TCGTACAGTC,0.98
19,GTAGGAGAAG,0.95
20,TTTTTTCAC,1.02
21,CATGCAAAGG,0.99
22,GCCACCATTT,0.97
23,CATTACCGTC,1.06
24,TGATCGTCGT,0.978
25,CGAAGGGTG,1.02
26,AGAAGTCGCA,0.997

row,Sequence,switch fluorescence ratio
1,TAGCCACGTT,0.939
2,GCAAACAAGG,1.01
3,TTGGAATGGC,0.969
4,TGGTGCGGC,1.03
5,AGGTCTTAAG,0.99
6,GTTACGAGCG,1
7,GTCAGGCCTC,0.995
8,AAACAGCCAC,1.17
9,ACCTTCGGTT,1.02
10,TAGGCATCGG,0.981
11,CCCAAGGGCT,1.04
12,CGTACTTCGT,0.989
13,TATTGGGCA,0.996
14,TGCCCCAGGG,1.66
15,GTGACGCCAG,0.949
16,TATTACGTAG,1.04
17,CTCGAGAGGA,1.04
18,CAGCCACAAA,1.14
19,TACTTGGGG,0.98
20,GTGGACGATC,1.02
21,GATATGGACA,1.03
22,CCTTTTTCCA,1.04
23,CGCATTTCGT,1.12
24,AGTGTTTCTT,1
25,TCGTGTAATT,0.954
26,TGTTCCAGAT,0.966

row,Sequence,switch fluorescence ratio
1,ACGTCCGTGA,1.1
2,GCCTAAAGGC,0.967
3,TTTTAATAAA,1.05
4,TCCGTTTAT,1.09
5,TCAAACCGTT,1.04
6,CCATATGTGA,1.01
7,CGTTGCAGCG,1.02
8,TGCTTGAGTG,1
9,CGGGTGGATG,0.961
10,ATTAGAGACT,1.02
11,TTTTAACCAT,1.06
12,ATTCTATTTA,0.99
13,CATCGTTGTT,0.97
14,GGTTGCTTCG,0.978
15,ACGCAGGGAT,1.1
16,GCTTGCTCGG,1
17,TTGCACTTAA,1.13
18,TTCCAGCGAA,1.06
19,AGCTGACTTA,1.05
20,GCATGTTTCT,1.05
21,AAGCGGGGTA,0.989
22,TATCAAGACA,1.01
23,GGCTAAATGC,1.01
24,TCCAATGCTC,2.55
25,GTGGGATACG,1
26,CGATCGCTGT,1.52

row,Sequence,switch fluorescence ratio
1,CACTAATCAG,1.04
2,GATGGGATAA,1.01
3,GGTCAAGTAG,1.03
4,GGCTAACGCA,1.05
5,CGAGAAAAAA,0.996
6,GTTAGCATGC,0.989
7,GACATGATTA,1.01
8,CTCCCCCTCG,4.72
9,ATGAAAGAAG,0.977
10,CAGTACTTAC,1.17
11,TACACTAAGC,1.1
12,GCCCCGGGG,1.07
13,GATGTATCAC,1.01
14,GAACATAGCT,1
15,AGGGTGGGCA,0.989
16,ATGAAGACCG,1.04
17,CGGCGGTGTG,1.03
18,CACATTAGGT,0.992
19,ATCAAAACCC,1.11
20,ATACTGC,1.03
21,ATGCTCCAGC,1.02
22,CTCATATCTT,0.99
23,GATACTGAGC,1.04
24,ATGGTGTCCC,0.979
25,TACGTGCACA,1.09
26,TCATAACCT,1.85

row,Sequence,switch fluorescence ratio
1,CCACGGACTT,1.42
2,AAGTCAGTTT,1.01
3,ATATAGATTT,0.988
4,AGTTGTCAGG,1.02
5,CGAGGCATTG,0.998
6,TGGTGCGGGT,0.994
7,AGCTTGTACG,1.09
8,GAAATCGTGC,1.04
9,TACAACTTCG,0.949
10,GGTAGACGCT,0.999
11,TAGGTTATGG,0.943
12,CGCCGGGGAG,0.998
13,CGGGAGTCAA,1.36
14,GGCGTCATTT,0.992
15,TCGCTGAACA,1.03
16,GAATGTCACG,0.984
17,AGCGACGGGT,1.01
18,TTAGGCACGG,0.991
19,TTCCGAAAGT,1.06
20,GATGCACGTG,0.985
21,GGGGCCATTG,1.01
22,AAATGGGCCG,0.995
23,TATCTAGAAT,1.02
24,GCTATTATA,1.04
25,TGCGCGTCTG,1.02
26,GTCGCACTAT,1.19

row,Sequence,switch fluorescence ratio
1,CAATCTTGCT,1.01
2,GCGGCAGTGT,0.997
3,CCTCTTCCAT,1.23
4,GCGTCGGAA,1
5,AATAAGTCCG,0.997
6,ACAGGGAAGG,1.05
7,CTGTACGATG,0.997
8,GATGGGGACT,0.996
9,AAAGTTGGAA,1.01
10,GATTAGATTG,0.988
11,GGTGCCAGGA,1.12
12,GCGGGTGTTT,1.05
13,GATCTATTCT,0.968
14,GTAATGCCAC,0.99
15,AGGGCGTGTG,1.01
16,GGACTTTAGG,0.955
17,GAGTTCGACC,1.03
18,TGGCATTTCT,1.06
19,ATCGTCGGCA,1.09
20,GACAGCGGGA,1.01
21,CTATATACAG,1.05
22,GGCAGCCCTG,1.03
23,GTTAAAACTA,1.03
24,TTTGGTAAAC,0.997
25,TACTGGGTGT,1.08
26,TAACCATCTA,1.03

row,Sequence,switch fluorescence ratio
1,CGGGCCCTGT,1
2,CATAGGGGCA,1.04
3,CCAGGCTCTA,0.999
4,TCGCCGGGGC,1.01
5,GCGTAAAGGC,0.984
6,CGTGATTTAC,1.13
7,GTTAACCTCG,1.03
8,AGGGTTCATG,1
9,ATATGTTGCT,0.975
10,AGTTCGTCGA,0.953
11,GCGGACAGGG,1.01
12,AGGAGGATGC,0.873
13,GTTACGCCGC,1.11
14,GCCCGGATGT,1.04
15,GACCTGATGT,1.02
16,GCATTGGGCT,0.997
17,TAGGAGTTTA,0.987
18,GGTATATACG,1
19,ATACAAAGAG,1.04
